Here are results for 94 sequences from article PMC10668032.

This is one part of the list. At the low end of the ranking, values are background and their order means little.

The experiment addresses SIX1-Q177R homeodomain (UniProt Q15475). Description: universal protein binding microarray. The note with it: Universal all-10-mer PBM (8x60K, AMADID 030236), 300 nM GST-tagged protein, Alexa Fluor 488 anti-GST; buffer, salt, pH and temperature not stated; high values mean tight binding; most listed sequences are background and not binding sites; double strand, one strand shown.
GTCCCCTA: the binding signal was 0.0845 E-score.
CACGCTAA: the binding signal was found to be 0.082 E-score.
The figure for ACCATCAA is -0.102 E-score; for ATTGCACA it is -0.112 E-score; for AAAGGAAT it is -0.245 E-score.
On to AACGCTAC, for which the binding signal is -0.0414 E-score.
Regarding AGATACTG, the binding signal is -0.0928 E-score.
Consider AATATGAG, for which the binding signal is -0.213 E-score.
To AGAAGCGG belongs -0.00419 E-score.
Regarding GAGCATAC, the binding signal was -0.0188 E-score.
Consider CTAATAAA, for which the binding signal is -0.166 E-score.
To GGAGATCC belongs 0.00281 E-score; to TCTACGCA, -0.237 E-score.
Regarding GGGTAAAA, the binding signal was determined as 0.0874 E-score.
As for CAGACGCA, the binding signal is -0.031 E-score.
With GCCTACAC, the binding signal came out at 0.442 E-score.
Take CTGTGGAC: the binding signal was 0.0386 E-score.
Turning to AGGTAGCC, the binding signal is -0.0452 E-score.
As to AATACCGC, the binding signal worked out at 0.0215 E-score.
In the case of CTGCTGAC, the binding signal came to 0.0561 E-score.
Take AGTAGCGA: the binding signal is 0.0415 E-score.
Take ACCTGTAT: the binding signal is 0.17 E-score.
AGTAGTGG: the binding signal was -0.033 E-score.
For the sequence CGTCAAAA, the binding signal was -0.0376 E-score.
Take CTTGAAGA: the binding signal is -0.222 E-score.
With CGCCGTGA, the binding signal was -0.0719 E-score.
Turning to CTGCCGTC, the binding signal is -0.0744 E-score.
GAAATCGC: the binding signal is -0.228 E-score.
Consider CTGATGTC, for which the binding signal is -0.319 E-score.
Turning to AAAGTTGG, the binding signal was -0.105 E-score.
ATATTAGA: the binding signal is -0.00137 E-score.
As for CACGACAC, the binding signal is 0.448 E-score.
Take GCGGGTTA: the binding signal is 0.21 E-score.
For the sequence GATTATCC, the binding signal stood at 0.0323 E-score.
With TGGTCGAA, the binding signal is -0.0184 E-score.
Consider GCCGAATA, for which the binding signal was -0.101 E-score.
In the case of AGGCTATA, the binding signal is -0.115 E-score.
To GATCGTCA belongs -0.0104 E-score; to ATGCTCGC, -0.233 E-score; to AGTTAGCC, -0.224 E-score.
Turning to ACAGGACA, the binding signal is 0.0498 E-score.
As to AAACAAAT, the binding signal was -0.146 E-score.
To CAAAGGTA belongs 0.0551 E-score; to AAATTTGG, -0.286 E-score.
On to AAGCCCAG, for which the binding signal was -0.22 E-score.
As to AATGACGC, the binding signal was determined as 0.125 E-score.
As for CGTGTAGA, the binding signal was 0.379 E-score.
On to GATGACTA, for which the binding signal was -0.148 E-score.
Take ACAGGGCA: the binding signal is -0.0909 E-score.
For CGCCGCAC, the binding signal amounted to 0.151 E-score.
With ATGGTCTC, the binding signal was -0.157 E-score.
To CCGAACAG belongs -0.0745 E-score.
For the sequence AAGGCCAG, the binding signal was -0.0629 E-score.
Take TGTTGGAA: the binding signal worked out at 0.091 E-score.
Turning to CCGCTTTA, the binding signal came out at 0.139 E-score.
For the sequence GTCGGTAA, the binding signal was -0.0896 E-score.
For AATCAAGC, the binding signal is -0.109 E-score.
To CCTTGTCG belongs -0.18 E-score.
Take GAGTCAGC: the binding signal was found to be 0.0775 E-score.
With CCCTGGAG, the binding signal is 0.00733 E-score.
Take ACCACGGT: the binding signal was -0.0281 E-score.
As for AGTAAGAC, the binding signal is -0.067 E-score.
For ACTTATCC, the binding signal was -0.00901 E-score.
For the sequence ACGTAGCA, the binding signal amounted to 0.00936 E-score.
As for TCATACGA, the binding signal is -0.106 E-score.
To CATGGTTA belongs -0.105 E-score.
With ACTGCTGC, the binding signal is -0.0463 E-score.
With TTGCGCAA, the binding signal is -0.224 E-score.
The figure for AGGCTCCG is -0.151 E-score; for ATTCGCAA it is 0.162 E-score.
Take AACTGGCG: the binding signal is -0.023 E-score.
Take ACCTGCCT: the binding signal amounted to 0.198 E-score.
Turning to GATCGCCA, the binding signal was -0.0725 E-score.
Regarding ACACATTG, the binding signal came out at 0.13 E-score.
To AGATTACT belongs -0.172 E-score; to AGGTGGCC, -0.165 E-score; to CCAGGATC, 0.193 E-score.
Turning to AAGGGTGG, the binding signal worked out at 0.139 E-score.
Turning to CATGCGCG, the binding signal was -0.0488 E-score.
As for AATGGAAA, the binding signal is 0.0898 E-score.
Turning to ACGTACGC, the binding signal is -0.0289 E-score.
Consider AAAGGGAC, for which the binding signal is -0.133 E-score.
Regarding GCCAATCA, the binding signal was -0.232 E-score.
CATACCAC: the binding signal was 0.0311 E-score.
Consider AAAGTAGG, for which the binding signal was -0.156 E-score.
As to CTAATTAA, the binding signal was -0.012 E-score.
To ACTCCGTC belongs 0.0603 E-score.
For the sequence GATAACGC, the binding signal was determined as 0.0566 E-score.
On to CATTCGCG, for which the binding signal was found to be 0.00596 E-score.
For the sequence CTCTAAGC, the binding signal was -0.187 E-score.
For AAGGGCCT, the binding signal was -0.0968 E-score.
For CTGTTACA, the binding signal came out at 0.238 E-score.
Regarding AATAGCGG, the binding signal was -0.156 E-score.
The figure for CCAGGCGG is 0.107 E-score.
